Measurements from the supplement of paper PMC7826260.
This is one part of the list. The data describe in vitro nicking of single-stranded DNA by Rep domains (3 µM enzyme, 1 h, 37 °C); shown is the middle of each 90-letter strand. A value is the log2 ratio of uncut reads to the pool without enzyme; more negative means more cut, near 0 not cut, and no call is made. Shares of all reads are compared; uncut strands gain when others are lost, and binding without cutting may add a little.

Columns and labels:
Experiment in all cases: uncleaved DNA left, log2 of reads against the no-enzyme library (log2 ratio); higher = less cleavage (more negative = more Rep cleavage of the k-mer); sequences stand for … in CTCGTCCG…ACCGGAGA
[1] = tested on: T1, Rep nickase domain of Muscovy duck circovirus
T1 sequence (residues 1-111, tag not shown): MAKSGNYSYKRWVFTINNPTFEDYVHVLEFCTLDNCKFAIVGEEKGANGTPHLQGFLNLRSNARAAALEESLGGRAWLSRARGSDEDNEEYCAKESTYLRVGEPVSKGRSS
Description: (§1)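 A pool of 90-nt single-stranded DNAs with seven random bases just before the constant AC of the nick site (name = the seven bases) was cut by 3 µM recombinant His6-SUMO-tagged Rep nickase domain (300 nM DNA, 50 mM HEPES pH 8.0, 50 mM NaCl, 1 mM MnCl2, 1 h, 37 °C, three replicates). Uncut DNA was amplified and sequenced.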

[2] = tested on: T2, Rep nickase domain of banana bunchy top virus
T2 sequence (residues 1-94, tag not shown): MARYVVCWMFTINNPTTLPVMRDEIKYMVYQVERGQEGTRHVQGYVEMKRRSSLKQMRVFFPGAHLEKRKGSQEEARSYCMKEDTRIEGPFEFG
Description: as §1

[3] = tested on: T3, Rep nickase domain of cabbage leaf curl virus
T3 sequence (residues 1-116, tag not shown): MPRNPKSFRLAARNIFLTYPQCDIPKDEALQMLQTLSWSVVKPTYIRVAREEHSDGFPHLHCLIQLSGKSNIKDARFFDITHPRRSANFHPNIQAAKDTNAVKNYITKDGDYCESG
Description: as §1

[4] = tested on: T4, Rep nickase domain of chickpea chlorotic dwarf virus
T4 sequence (residues 1-124, tag not shown): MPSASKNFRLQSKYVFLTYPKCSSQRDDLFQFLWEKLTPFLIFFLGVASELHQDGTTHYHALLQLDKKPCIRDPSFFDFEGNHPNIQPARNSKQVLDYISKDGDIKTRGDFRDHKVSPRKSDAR
Description: as §1

[5] = tested on: T5, Rep nickase domain of faba bean necrotic yellows virus
T5 sequence (residues 1-98, tag not shown): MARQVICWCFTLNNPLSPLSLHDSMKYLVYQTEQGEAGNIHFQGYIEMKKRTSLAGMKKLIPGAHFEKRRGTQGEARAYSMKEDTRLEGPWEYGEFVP
Description: as §1

[6] = tested on: T6, Rep nickase domain of maize striate mosaic virus
T6 sequence (residues 1-117, tag not shown): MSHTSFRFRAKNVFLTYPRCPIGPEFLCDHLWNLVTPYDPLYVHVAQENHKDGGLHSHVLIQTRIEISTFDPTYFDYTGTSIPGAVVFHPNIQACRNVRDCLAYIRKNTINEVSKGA
Description: as §1

[7] = tested on: T7, Rep nickase domain of porcine circovirus 2
T7 sequence (residues 2-116, tag not shown): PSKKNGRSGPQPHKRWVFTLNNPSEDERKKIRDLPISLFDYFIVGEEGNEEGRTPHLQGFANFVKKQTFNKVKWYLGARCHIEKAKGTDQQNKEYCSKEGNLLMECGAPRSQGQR
Description: as §1

[8] = tested on: T8, Rep nickase domain of tomato golden mosaic virus
T8 sequence (residues 1-124, tag not shown): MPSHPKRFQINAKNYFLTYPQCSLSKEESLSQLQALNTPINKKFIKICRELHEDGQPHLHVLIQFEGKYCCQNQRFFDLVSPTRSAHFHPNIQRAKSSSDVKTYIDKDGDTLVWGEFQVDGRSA
Description: as §1

[9] = tested on: T9, Rep nickase domain of tomato yellow leaf curl virus
T9 sequence (residues 1-136, tag not shown): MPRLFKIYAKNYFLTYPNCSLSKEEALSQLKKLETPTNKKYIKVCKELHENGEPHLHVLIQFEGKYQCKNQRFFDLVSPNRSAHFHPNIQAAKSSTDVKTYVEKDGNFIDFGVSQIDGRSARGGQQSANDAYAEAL
Description: as §1

[10] = tested on: T10, Rep nickase domain of wheat dwarf virus
T10 sequence (residues 1-137, tag not shown): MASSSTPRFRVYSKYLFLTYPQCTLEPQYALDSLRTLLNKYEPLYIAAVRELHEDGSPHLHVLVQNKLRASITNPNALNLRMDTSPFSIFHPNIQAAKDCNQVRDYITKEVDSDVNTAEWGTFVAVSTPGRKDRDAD
Description: as §1

Row | Sequence | uncleaved DNA left (log2) [1] | uncleaved DNA left (log2) [2] | uncleaved DNA left (log2) [3] | uncleaved DNA left (log2) [4] | uncleaved DNA left (log2) [5] | uncleaved DNA left (log2) [6] | uncleaved DNA left (log2) [7] | uncleaved DNA left (log2) [8] | uncleaved DNA left (log2) [9] | uncleaved DNA left (log2) [10]
1 | ACCCTGC | -0.0312 | -0.233 | -0.688 | -0.59 | -0.0952 | -1.05 | -0.0733 | -0.0729 | -0.132 | -0.28
2 | CTGTATA | -0.0178 | -0.15 | -0.188 | -1.38 | 0.0792 | -0.428 | -0.211 | -0.00703 | -0.0158 | 0.0129
3 | GCGGGGC | 0.0061 | 0.0314 | 0.847 | 1.24 | 0.193 | 1.93 | 0.337 | 0.116 | 0.166 | 0.141
4 | TGCTAGA | 0.128 | 0.13 | -0.0758 | -0.215 | 0.131 | -0.708 | 0.211 | 0.146 | 0.111 | 0.131
5 | CCCCCTA | -0.123 | -0.208 | -0.0593 | -1.28 | -0.137 | -0.604 | -0.44 | -0.0713 | -0.185 | -0.0284
6 | GTACTCA | 0.0297 | 0.0406 | 0.219 | 0.7 | -0.0876 | 1.58 | -0.0434 | 0.0929 | 0.104 | 0.0905
7 | TTAAGAT | 0.101 | -0.186 | -2.04 | -2.6 | -0.0542 | 0.887 | -0.033 | -0.0716 | -0.11 | -0.225
8 | TGGGTTT | -0.081 | -0.0863 | 0.545 | 0.836 | -0.103 | 1.7 | 0.0818 | -0.045 | -0.0214 | -0.00951
